From PubChem BioAssay AID1963576 (National Center for Advancing Translational Sciences (NCATS), 2024)
About 60 (0.1%) of roughly 46,000 compounds were called active. Another 3% or so got no clear call; they are omitted. Calls come from the whole dose curve; as a rule, active = well fitted inhibition curve with a large enough effect; inconclusive = small, poorly fitted or top-dose-only effect; inactive = no such curve, though single readings can be large or run the other way. This is one part of the list.

Test: Primary qHTS assay for Inhibitors of ovarian cancer metastasis using an organotypic tumor microenvironment (TME) model. Note: nearly all actives have a fitted effect of over 65% in size.
Details: SKOV3ip1-GFP adhesion/invasion on 3D omental model, fluorescence; series mostly up to 45.8 µM; activity change, negative = inhibition: at the top concentration
Excerpt: PI: Ernst Lengyel MD., Ph.D. Department of Obstetrics and Gynecology, Section of Gynecologic Oncology University of Chicago Medicine, Chicago, Illinois. The tumor microenvironment (TME) is a key determinant of metastatic efficiency. We performed a quantitative high-throughput screen (qHTS) of diverse medicinal chemistry tractable scaffolds (44,420 compounds) and pharmacologically active small molecules (386 compounds) using a layered organotypic, robust assay representing the ovarian cancer metastatic TME. This 3D model contains primary human mesothelial cells, fibroblasts, and extracellular matrix, to which fluorescently labeled ovarian cancer cells are added. Initially, 100 compounds inhibiting ovarian cancer adhesion/invasion to the 3D model in a dose-dependent manner were identified. Of those, eight compounds were confirmed active in five high-grade serous ovarian cancer cell lines and were further validated in secondary in vitro and in vivo biological assays. […] Specifically, NCGC00117362 and PP-121 inhibited ovarian cancer adhesion, invasion, and proliferation, whereas milciclib inhibited ovarian cancer invasion and proliferation. […] To evaluate the clinical potential of NCGC00117362, structure - activity relationship studies were performed. […] The three compounds identified have promise as therapeutics for prevention and treatment of ovarian cancer metastasis.
PROTOCOL TABLE (as described by Inglese J, Shamu CE and Guy RK. 2007) SEQUENCE No. (e.g., 1, 2, 3, etc.); […] (e.g., Cells, Incubation, Reagent, etc.); VALUE; DESCRIPTION. 1; Cells; 4 uL; primary human omental fibroblast, black, clear bottom, low base, 1536-well Aurora assay plate. 2; Incubation; 48 hr; 37C. 3; Cells; 3 uL; 1,200 SKOV3ip1-GFP cells. 4; Compounds; 23nL; acoustic dispenser. 5; Incubation; 2 hr; room temperature. 6; Incubation; 16 hr; 37C. 7; Wash; 5 uL; 1x PBS. 8; Fixing; 5 uL; 4% paraformaldehyde (PFA). 9; Incubation; 15 min; room temperature 10; Wash, 5 uL; 1x PBS. 11; Detection; Fluorescence, excitation filter 488 nm, emission filter 509 nm. NOTES (numbers refer to Sequence numbers above) 1. For the 1,536-well format, 40 primary human omental fibroblasts and 400 mesothelial cells were seeded with 0.02 µg fibronectin and 0.02 µg collagen type I in 4 µL of growth media (2.3 mm2; Supplementary Fig. S1A). 2. Assay plates were incubated for 48 hours at 37 C. 3. After incubation, 1,200 SKOV3ip1-GFP were seeded in 3 µL of serum-free media (growth media minus FBS) on top of primary human omental cells. 4. Compounds or controls were added to each well immediately after the addition of the cancer cells. Compounds were screened in four doses (0.36-46 µmol/L), and the plates contained the positive control (Tomatine) in eight doses (0.035-75 µmol/L) and DMSO (equal volume controls) 5 - 6. The plates were incubated at room temperature for 2 hours and then at 37 degrees C for 16 hours. 7 - 10. Following incubation, the media were aspirated and each well washed with PBS (5 µL) and then fixed with 4% paraformaldehyde (PFA; 5 µL). After 15 minutes, the PFA solution was aspirated, PBS (5 µL) was added. 11. The number of GFP-labeled cells analyzed using a fluorescent cytometer TTP LabTech Acumen eX3 using 488 nm excitation filter and 509 nm emission filter. Data was normalized to the DMSO treated for negative and Tomatine treated wells for positive control. REFERENCES: Inglese J, Shamu CE and Guy RK, Reporting data from high throughput screening of small molecule libraries, Nature Chemical Biology, 2007, 3(8): 438-441. doi.org/10.1038/nchembio0807-438. Yasgar A, Shinn P, Jadhav A, Auld DS, Michael S, Zheng W, Austin CP, Inglese J and Simeonov A, Compound Management for Quantitative High-Throughput Screening. J. Assoc. Lab. Auto., 2008, 13: 79-89. doi: 10.1016/j.jala.2007.12.004.

Row | Compound | activity change, negative = inhibition | outcome
1 | CC(=O)N1CCCc2cc(S(=O)(=O)N(C)CC(=O)Nc3ccc(C(C)C)cc3)ccc21 | inactive: 3.8% | –
2 | COc1ccc(CNC(=O)CCC2N=C3c4ccccc4N=C(SCC(=O)NCCc4ccc(OC)c(OC)c4)N3C2=O)cc1 (stereo unspecified) | inactive: 18.4% | –
3 | COc1cccc(CNC(=O)c2sc3nc[nH]c(=O)c3c2C)c1 | inactive: 0.391% | –
4 | COc1ccc(NC(=O)Cn2ccn(-c3ccc(F)c(F)c3)c(=O)c2=O)cc1Cl | – | inactive
5 | O=C1CC(c2ccccc2)Sc2ccccc2N1Cc1ccccc1F (stereo unspecified) | – | inactive
6 | CC(C)OC(=O)c1c(NC(=O)c2cccc(C(F)(F)F)c2)sc2c1CCCC2 | inactive: -2.78% | –
7 | COc1ccc(C2Nc3ccccc3-c3cc(C)nn32)c(OC)c1 (stereo unspecified) | inactive: 2.39% | –
8 | CCOc1ccc(NC(=O)c2cc(-c3ccc(C)c(F)c3)on2)c([N+](=O)[O-])c1 | inactive: 11.3% | –
9 | Cc1cccc(C)c1OCCn1c(CCNC(=O)C2CCCCC2)nc2ccccc21 | inactive: -10.4% | –
10 | COc1ccc(C(=O)Oc2c(Sc3ccccc3)c(C)nn2-c2ccccc2)c(OC)c1 | – | inactive
11 | COc1cccc(N2CCN(C(=O)c3cnc4c(-c5ccc(F)cc5)c(C)nn4c3C)CC2)c1 | inactive: -4.28% | –
12 | CN[C@H]1[C@@H](O[C@@H]2[C@H](O[C@@H]3[C@@H](O)[C@@H](O)[C@@H](N=C(N)N)[C@@H](O)[C@@H]3N=C(N)N)O[C@H](C)[C@@]2(O)C=O)O[C@@H](CO)[C@@H](O)[C@H]1O | inactive: -0.881% [at 15.1 µM] | –
13 | COc1ccccc1CNC(=O)C(=O)NCC(c1ccco1)S(=O)(=O)c1ccc(F)cc1 (stereo unspecified) | inactive: 1.95% | –
14 | COc1ccc(C)c2sc(NC(=O)c3ccc(S(=O)(=O)N4CCOCC4)cc3)nc12 | inactive: 1.55% | –
15 | CC1=C(C(=O)Nc2cc3cn[nH]c3cc2F)C(c2ccc(Cl)cc2F)N=C(c2ccnc(Cl)c2)N1 (stereo unspecified) | inactive: 16.7% | –
16 | CC(C)(C)c1ccc(C(=O)NCC(c2ccco2)S(=O)(=O)c2ccccc2)cc1 (stereo unspecified) | inactive: 0.328% | –
17 | CCN(CC)S(=O)(=O)c1ccc2c(c1)N(CC(=O)Nc1ccc(Cl)cc1)C(=O)C1CCCN21 (stereo unspecified) | – | inactive
18 | COC(=O)c1ccccc1NS(=O)(=O)c1cc2c3c(c1)CC(=O)N3CCC2 | inactive: -9.54% | –
19 | Cc1ccc(-n2nc(C)c3c(C(=O)Nc4ccccc4C(F)(F)F)cc(C)nc32)cc1 | inactive: 1.19% | –
20 | Cc1ccc2c(c1)C(c1ccccc1)N(C(=O)COc1ccc(Cl)cc1Cl)CC(=O)N2 (stereo unspecified) | inactive: 2.22% | –
21 | CC1=C(C(=O)Nc2ccccc2)C(c2ccccn2)n2nc(SCc3ccccc3)nc2N1 (stereo unspecified) | inactive: -2.6% | –
22 | COc1cccc(-c2nc(Cn3c(=O)cc(C)c4c(C)nn(-c5ccccc5)c43)c(C)o2)c1OC | – | inactive
23 | CCOc1ccc2nc(N(Cc3cccnc3)C(=O)c3cccs3)sc2c1 | inactive: 5.72% | –

Row | Compound | activity change, negative = inhibition | outcome
24 | COc1cccc(C(=O)Nc2nc(-c3nnn(-c4ccccc4C(F)(F)F)c3C)ns2)c1 | inactive: -16% | –
25 | Cc1c(Cl)ccc2sc(N3CCN(C(=O)CCS(=O)(=O)c4ccc(F)cc4)CC3)nc12 | inactive: -4.57% | –
26 | CCCCCOc1ccc(NC(=O)Cn2c(-c3nonc3N)nc3ccccc32)cc1 | inactive: 7.05% | –
27 | COc1ccc(-c2nc3ccccc3n2Cc2ccccc2)cc1 | inactive: 0.94% | –
28 | CCSc1nc(-c2cccc(Cl)c2)nc2c1Cc1c(CO)cnc(C)c1O2 | inactive: 7.98% | –
29 | COc1cccc(CNC(=O)Cn2nc(C)n3c(cc4cc(C)ccc43)c2=O)c1OC | inactive: -1.07% | –
30 | CCCN(C(=O)c1cc2c(=O)oc3ccc(C)cc3c2s1)c1ccc(OCC)cc1 | – | inactive
31 | CCCCN1C(=O)C(O)(CC(=O)c2ccc(CC)cc2)c2cc(Br)ccc21 (stereo unspecified) | inactive: -0.622% | –
32 | Cc1ccc(Nc2c(-c3cccnc3)nc3ccc(C)cn23)cc1 | inactive: -1.82% | –
33 | Cc1cc(C)c(NC(=O)CSc2nc(=O)n(Cc3ccncc3)c3c2CCC3)c(C)c1 | inactive: 2.23% | –
34 | CCOCCCNC(=O)C(c1ccc(C)cc1)N(Cc1ccc2c(c1)OCO2)C(=O)c1ccccc1O (stereo unspecified) | inactive: 4.63% | –
35 | CCc1nn(CC(=O)N2CCN(c3cccc(C)c3)C(C)C2)c(=O)c2cc3sccc3n12 (stereo unspecified) | – | inactive
36 | COc1ccccc1C(=O)NC1(C(F)(F)F)NC(=O)N(CCc2ccccc2)C1=O (stereo unspecified) | – | inactive
37 | O=C(CSc1nnc2scc(-c3ccc(Cl)cc3)n12)Nc1ccc(F)cc1 | inactive: -7.8% | –
38 | Cc1ccc(NC(=O)n2ncc3c(C)cccc32)c(C)c1 | inactive: -0.431% | –
39 | CCOC(=O)N1CCc2c(sc(NCc3cc(OC)ccc3OC)c2C(=O)Nc2cc(OC)ccc2OC)C1 | inactive: -17.8% | –
40 | Cc1ccc(N(C)C(=O)Cn2ncc3c([nH]c4ccccc43)c2=O)cc1C | – | inactive
41 | O=C(NC1CCCCC1)c1ccc(CSc2nc3ccncc3n2Cc2cccc(F)c2)cc1 | inactive: -2.37% | –
42 | CCc1ccc(CNC(=O)c2ccc3c(c2)c(C)c(C)n3Cc2ccccc2)cc1 | inactive: -1.78% | –
43 | O=C(CSc1nc2c([nH]c3ccccc32)c(=O)n1-c1ccccc1)Nc1cccc(C(F)(F)F)c1 | inactive: 3.39% | –
44 | Cc1ccc(NC(=O)CCn2cccn2)c(C)c1 | inactive: 2.22% | –
45 | Cc1ccc(Cn2c(=O)n(CCc3ccccc3)c(=O)c3sc4ccccc4c32)cc1 | inactive: -4% | –
46 | COc1ccc(N2CCN(C(=O)Cn3cnc4sc(C)c(S(=O)(=O)N5CCCCC5)c4c3=O)CC2)cc1 | inactive: -4.46% | –
